This note sets out measurements from paper PMC10668032.

This is one part of the list. At the low end of the ranking the order means little.

The assay concerns the target SIX1-Q177R homeodomain (UniProt Q15475). The assay is described as follows: universal protein binding microarray. The settings on record: Universal all-10-mer PBM (8x60K, AMADID 030236), 300 nM GST-tagged protein, Alexa Fluor 488 anti-GST; buffer, salt, pH and temperature not stated; high values mean tight binding; most listed sequences are background and not binding sites; double strand, one strand shown.
As for AAACTGGC, the binding signal came to 0.147 E-score.

Regarding ACTCATCT, the binding signal was -0.161 E-score.

With GAATGCAA, the binding signal is -0.197 E-score.

Take ATGAGGAC: the binding signal is -0.136 E-score.

In the case of AATGGACC, the binding signal was -0.209 E-score.

Turning to CCCGCAGC, the binding signal was -0.125 E-score.

Turning to GATAGTAC, the binding signal came to 0.132 E-score.

For the sequence ATCGGGCG, the binding signal turned out to be 0.113 E-score.

Turning to CCCAACCA, the binding signal stood at 0.167 E-score.

As for GGGCACTA, the binding signal is -0.0665 E-score.

With AGCTTCAG, the binding signal is -0.0707 E-score.

Regarding ACCATTGG, the binding signal amounted to 0.0146 E-score.

For the sequence AGCCCACC, the binding signal was -0.0322 E-score.

In the case of AGAACAAG, the binding signal is -0.0118 E-score.

ACCGAGCC: the binding signal is -0.0735 E-score.

In the case of CACTGGGC, the binding signal came out at 0.154 E-score.

AAGTAGGT: the binding signal is -0.00332 E-score.

Turning to GCACAAAC, the binding signal turned out to be 0.0203 E-score.

GACAAAAA: the binding signal was -0.238 E-score.

Turning to CGAAAAAG, the binding signal was found to be 0.00292 E-score.

For the sequence GGCCGAGA, the binding signal was -0.117 E-score.

In the case of GTCGAGCA, the binding signal was -0.0853 E-score.

Turning to ACGCCGAT, the binding signal was determined as 0.152 E-score.

Take ACGGGCAG: the binding signal came to 0.0358 E-score.

Turning to AGTCCTGC, the binding signal is -0.106 E-score.

Turning to AAGGATCT, the binding signal is -0.0101 E-score.

CTACTTAA: the binding signal is -0.0474 E-score.

In the case of GATTGGAA, the binding signal is -0.14 E-score.

For the sequence AGCTATCC, the binding signal is -0.156 E-score.

Turning to CTATTTTC, the binding signal amounted to 0.0145 E-score.

Take AGACAATC: the binding signal is -0.165 E-score.

With AATGAACA, the binding signal was determined as 0.0106 E-score.

For ACGCGCAA, the binding signal was found to be 0.00609 E-score.

As for TGAGCGAA, the binding signal came out at 0.0103 E-score.

As to ATGAGGGC, the binding signal was -0.126 E-score.

In the case of ACGGTTAT, the binding signal is -0.0586 E-score.

For GGGTAACA, the binding signal is 0.281 E-score.

As for AACAGGGG, the binding signal was 0.17 E-score.

As to AGAGCCCA, the binding signal was -0.3 E-score.

Take ACGGGTAA: the binding signal turned out to be 0.166 E-score.

With ACGGCCCA, the binding signal is -0.0327 E-score.

In the case of ATGCCTCC, the binding signal was -0.217 E-score.

Take CCCCGCAA: the binding signal was 0.17 E-score.

Consider CTGGTACA, for which the binding signal was found to be 0.21 E-score.

In the case of CTTTATCC, the binding signal is -0.0934 E-score.

Consider CGCAAAGC, for which the binding signal is -0.163 E-score.

For ACTGTGAG, the binding signal worked out at 0.111 E-score.

In the case of AGTTGGTC, the binding signal is -0.254 E-score.

Regarding GGACGTTA, the binding signal worked out at 0.132 E-score.

Consider CCGGGAGG, for which the binding signal stood at 0.0853 E-score.

Take AATCGGAC: the binding signal is -0.0408 E-score.

In the case of CTGGCTAC, the binding signal was -0.119 E-score.

For ACACAGAT, the binding signal came out at 0.167 E-score.

Turning to AGAAAGAT, the binding signal is -0.305 E-score.

Turning to CAGTGTAG, the binding signal stood at 0.423 E-score.

As to GCACACAC, the binding signal worked out at 0.275 E-score.

ACATCATC: the binding signal is -0.133 E-score.

Turning to ATTAGTCG, the binding signal was 0.0382 E-score.

Turning to AAATTTCG, the binding signal was -0.177 E-score.

On to CAGGTGAG, for which the binding signal is -0.0478 E-score.

Turning to AACTATAC, the binding signal was 0.138 E-score.

On to AATCACCA, for which the binding signal is -0.118 E-score.

Consider ACAGTACG, for which the binding signal is -0.0108 E-score.

Turning to CACCATAC, the binding signal was 0.349 E-score.

Consider AGGTTATC, for which the binding signal was -0.151 E-score.

Turning to AAGGTTTC, the binding signal was -0.0918 E-score.

For the sequence ATGCCGGA, the binding signal is 0.141 E-score.

In the case of ACCCACTC, the binding signal is 0.247 E-score.

Consider AGTACTTG, for which the binding signal was -0.0862 E-score.

As for CAGGCGGC, the binding signal was -0.0835 E-score.

For the sequence GCTTCAGA, the binding signal was -0.206 E-score.

As for GGGAAGAA, the binding signal was -0.0636 E-score.

For TAGGATGA, the binding signal is -0.0891 E-score.

Regarding AACTGGGC, the binding signal was -0.221 E-score.

With CATCCATG, the binding signal was 0.0752 E-score.

Consider GAACAAAC, for which the binding signal was -0.0718 E-score.

For the sequence ACTCGGGC, the binding signal worked out at 0.161 E-score.

For the sequence CACTAGCG, the binding signal came out at 0.188 E-score.

With GACCTTCC, the binding signal is -0.0691 E-score.

Regarding AAGAACCC, the binding signal turned out to be 0.115 E-score.

As for CATGATGC, the binding signal was -0.248 E-score.

Turning to CCTTCATC, the binding signal was -0.158 E-score.

CGAGAAAG: the binding signal is -0.0483 E-score.

Regarding ATAAGGAT, the binding signal was 0.131 E-score.

Consider CACTCTTC, for which the binding signal is 0.0747 E-score.

With GTCTTTGA, the binding signal was -0.189 E-score.

On to GTAATCAC, for which the binding signal worked out at 0.114 E-score.

AATAAACC: the binding signal turned out to be 0.0937 E-score.

In the case of AAAGTTAT, the binding signal is -0.074 E-score.

In the case of AAGTTGCC, the binding signal is -0.268 E-score.

Turning to GCTGTTGA, the binding signal was -0.143 E-score.

On to GCGACCGC, for which the binding signal is -0.0652 E-score.

On to TACTATCA, for which the binding signal is 0.00575 E-score.

In the case of CCCCGGCG, the binding signal is 0.139 E-score.

As to AGATATCA, the binding signal is -0.189 E-score.

Turning to AGTCACAT, the binding signal is -0.0439 E-score.

As for ACGTCGTG, the binding signal is 0.0879 E-score.

For the sequence CACCGGTA, the binding signal worked out at 0.345 E-score.

As to CCCGTCAC, the binding signal turned out to be 0.0171 E-score.

Turning to AGGCTGAC, the binding signal is -0.112 E-score.

For GCCCTTAC, the binding signal was -0.248 E-score.

On to AGTGACAT, for which the binding signal is -0.101 E-score.

For the sequence AGCCCCGC, the binding signal stood at 0.00775 E-score.

Consider TACTAAAA, for which the binding signal was -0.0238 E-score.

As for AGCGAGAA, the binding signal is -0.139 E-score.

Take CATCTTCA: the binding signal amounted to 0.051 E-score.

Regarding CCATCGAA, the binding signal is -0.0938 E-score.

For the sequence CTGGTGAC, the binding signal amounted to 0.124 E-score.

With AGCTGTGC, the binding signal is -0.122 E-score.

With TGCAATAA, the binding signal is -0.0636 E-score.

Consider ACCCGACT, for which the binding signal was 0.207 E-score.

As to GTGGGCAA, the binding signal is -0.0987 E-score.

On to CAACAGAA, for which the binding signal is -0.251 E-score.

In the case of CGCTATCC, the binding signal came out at 0.0734 E-score.

As for ACGGAACT, the binding signal is -0.0864 E-score.

For CACAATAG, the binding signal was 0.0436 E-score.

In the case of ACATCTCA, the binding signal was -0.087 E-score.

Turning to TATTCGCA, the binding signal was -0.118 E-score.

On to CATGCACC, for which the binding signal turned out to be 0.165 E-score.

For AAGTAGCT, the binding signal is -0.197 E-score.

Regarding CTACATAA, the binding signal is -0.0943 E-score.

As for GTAACAGA, the binding signal came out at 0.16 E-score.

With CGGACACG, the binding signal is 0.373 E-score.

In the case of CAGAGTGG, the binding signal is -0.04 E-score.

Regarding CACGCCCC, the binding signal stood at 0.29 E-score.

Consider AGACGGTG, for which the binding signal came out at 0.23 E-score.

Regarding AATACAGA, the binding signal was -0.17 E-score.

As for AGCGGAAG, the binding signal was -0.163 E-score.

For CGGCCGTC, the binding signal was -0.156 E-score.

For TCTAGAGA, the binding signal was -0.0337 E-score.

In the case of ATATCTAC, the binding signal was -0.0248 E-score.

As for GAGTTATA, the binding signal came out at 0.0922 E-score.

Take AGCAACAG: the binding signal is -0.218 E-score.

For the sequence AGAGCACG, the binding signal amounted to 0.136 E-score.

Turning to ACTGTATA, the binding signal was 0.0247 E-score.

As for ACGTCACA, the binding signal is 0.0995 E-score.

On to CGACAACA, for which the binding signal was 0.245 E-score.

AGAGTAAG: the binding signal worked out at 0.00123 E-score.

Turning to AACATACA, the binding signal was 0.082 E-score.

Take ACAACAAC: the binding signal was 0.0423 E-score.

As for GAAAGGCA, the binding signal is -0.218 E-score.

Turning to TAAGAGTA, the binding signal is 0.0672 E-score.

As to CCTCTAAG, the binding signal amounted to 0.0716 E-score.

ACTCTTGC: the binding signal is -0.00673 E-score.

Turning to ACTTTAAG, the binding signal was -0.148 E-score.

Consider CAGCGCAC, for which the binding signal was found to be 0.0268 E-score.

Consider GATTTTCA, for which the binding signal was -0.179 E-score.

With AAGAGTGT, the binding signal was 0.363 E-score.

ACAGCTCA: the binding signal is -0.268 E-score.

Take ATTCCTAG: the binding signal is -0.108 E-score.

Take ATTGAGTA: the binding signal was 0.0331 E-score.

Regarding CAGGAAAG, the binding signal was -0.121 E-score.

With ACTCAAGT, the binding signal is -0.0138 E-score.

For the sequence ACCGATTG, the binding signal came out at 0.0855 E-score.

In the case of GTCCGTCA, the binding signal was -0.104 E-score.

With CTGGCAGA, the binding signal was -0.0375 E-score.

Take CCAGAAGG: the binding signal was 0.0371 E-score.

With ATTTCTTG, the binding signal is -0.256 E-score.

As to ATATCCAC, the binding signal came out at 0.0168 E-score.

In the case of GGGTAATA, the binding signal amounted to 0.264 E-score.

TTCTAAAA: the binding signal was -0.202 E-score.

Regarding CCAAACAA, the binding signal is -0.143 E-score.

With AGTGGAGC, the binding signal is -0.086 E-score.

Take CTGGCGAC: the binding signal was -0.0203 E-score.

As to ACTCCGCG, the binding signal came out at 0.22 E-score.

On to CGATCGCA, for which the binding signal was found to be 0.0214 E-score.

For the sequence AGATCGCA, the binding signal worked out at 0.00417 E-score.

For AATCTGCA, the binding signal is -0.0776 E-score.

As for ACTCCCGG, the binding signal is 0.239 E-score.

In the case of AGCTACTC, the binding signal was -0.0761 E-score.

In the case of AACAGCAC, the binding signal was 0.0559 E-score.

On to CTCGATCA, for which the binding signal is -0.0116 E-score.
